Laboratory results as given in PubChem BioAssay AID360 (National Center for Advancing Translational Sciences (NCATS), 2006).
Screen size: about 48,000 compounds; about 550 (1.1%) were called active. Roughly 4% stayed inconclusive and do not appear here. Cut-off read from the data, not from the text of the source: active = potency below about 15 µM; inconclusive = mostly about 16 µM to 33 µM; inactive = weaker than that. The list shows a part of the results.

Target: Lysosomal acid glucosylceramidase (Homo sapiens) (UniProt P04062)
Experiment: Glucocerebrosidase;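 note: the screen sought inhibitors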
Conditions: purified enzyme, resorufin glucoside fluorescence (screen aimed at inhibitors), 20 min; series mostly up to 77 µM
Method in brief: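 Wild-type enzyme at 0.2 nM final in 50mM citric acid/KH2PO4, 10mM sodium taurocholate, 0.01% tween-20, pH 5.9, with resorufin beta-D-glucopyranoside at 30 uM final. Compounds titrated, 20 min at RT, red fluorescence read; AC50 from titration.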
Potency is the fitted concentration of half-maximal effect.

Chain of UniProt P04062 (P04062 whole entry, looked up): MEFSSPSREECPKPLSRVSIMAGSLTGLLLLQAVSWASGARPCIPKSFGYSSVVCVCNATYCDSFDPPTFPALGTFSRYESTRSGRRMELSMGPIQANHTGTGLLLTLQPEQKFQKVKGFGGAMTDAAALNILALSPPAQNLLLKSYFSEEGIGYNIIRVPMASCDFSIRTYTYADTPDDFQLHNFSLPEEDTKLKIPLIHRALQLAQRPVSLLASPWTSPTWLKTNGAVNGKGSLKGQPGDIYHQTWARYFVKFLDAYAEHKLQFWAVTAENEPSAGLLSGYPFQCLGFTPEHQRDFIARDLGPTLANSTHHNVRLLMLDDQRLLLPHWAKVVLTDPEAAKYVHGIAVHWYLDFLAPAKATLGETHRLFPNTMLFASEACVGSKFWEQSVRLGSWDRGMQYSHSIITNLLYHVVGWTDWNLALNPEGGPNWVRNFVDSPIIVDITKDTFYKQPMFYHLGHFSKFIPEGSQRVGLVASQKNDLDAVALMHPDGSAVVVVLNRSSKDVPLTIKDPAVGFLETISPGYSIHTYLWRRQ

Potency, inactive:
Cc1cc(C)c(OCC(=O)Nc2cccc(O)c2)cc1C
Cc1ccc2c(c1)N(CC(=O)N1CCCc3ccccc31)C(=O)CO2 > 76.9 µM
CC(C)(C)NC(=O)NC(=O)COC(=O)COc1ccc2c(c1)CCC2 > 76.9 µM
CCS(=O)(=O)N1CCC(C(=O)NCCCN2CCN(c3ccccc3F)CC2)CC1 > 76.9 µM
CCOc1ccccc1N(CC(=O)NC1CCCC1)C(=O)CCC(=O)Nc1cc(C)on1 > 76.9 µM
O=C(NC1CCCCC1)N1CCCC(c2nc3ccccc3[nH]2)C1 (configuration not stated) > 76.9 µM
COCCCNC(=O)CC(NS(=O)(=O)c1ccc(Cl)cc1)c1ccco1 (configuration not stated) > 76.9 µM
CCN=C1SC(CC(=O)Nc2ccc(C)cc2)C(=O)N1CC (configuration not stated) > 76.9 µM
Cc1cc(C(=O)CSc2nnnn2-c2ccccc2)c(C)n1CC1CCCO1 (configuration not stated) > 76.9 µM
Cc1cc(=O)n(CC(C)O)c(O)c1C#N (configuration not stated) > 76.9 µM
COC(=O)NCc1ccc(CNC(=O)OC)cc1 > 76.9 µM
Cc1onc(-c2ccccc2Cl)c1C(=O)NCc1nc(-c2ccccc2)no1 > 76.9 µM
CN1C(=O)CSc2ccc(NC(=O)Nc3ccccn3)cc21 > 76.9 µM
Cc1cc(C(F)F)n2nc(C(=O)Nc3cccc(C(F)(F)F)c3)nc2n1 > 76.9 µM
COc1cccc(C(=O)NC2CCN(CC(=O)NCc3ccccc3OC)CC2)c1 > 76.9 µM
Cc1cc(NC(=O)c2cnn3cccnc23)no1 > 76.9 µM
O=C(NCc1cccnc1)c1ccc(Cl)c(Cl)c1 > 76.9 µM
CCS(=O)(=O)Nc1ccc(C(=O)CC2(O)C(=O)Nc3ccc(Br)cc32)cc1 (configuration not stated) > 76.9 µM
CCCOc1ccc(C2C(C(=O)c3ccco3)=C(O)C(=O)N2CCCn2ccnc2)cc1 (configuration not stated) > 76.9 µM
CC(=O)Nc1c(O)nc(SCC(=O)Nc2ccc(C(C)=O)cc2)[nH]c1=O > 76.9 µM
COc1ccc(C(=O)Nc2ccc(Cl)c(Cl)c2)c(OC)n1 > 76.9 µM
CCN(CC)C(=O)Oc1ccc2c(=O)c(-c3ccccc3)coc2c1 > 76.9 µM
Cn1c(=O)[nH]c(=O)c2c1nc(CN1CCN(c3cccc(Cl)c3)CC1)n2CCc1ccccc1 > 76.9 µM
CCOC(=O)CSc1nc(-c2ccc(OC)cc2)ns1 > 76.9 µM
Cc1ccc(CN2C(=O)CCC2C(=O)NCCCN2CCC(C)CC2)cc1 (configuration not stated) > 76.9 µM
CCOc1ccc(C(=O)N2CCN(C(=O)c3ccco3)CC2)cc1OCC > 76.9 µM
Cn1c(=O)c2c(nc(Oc3ccc4c(c3)OCO4)n2Cc2ccc(Cl)cc2)n(C)c1=O > 76.9 µM
COc1ccc(OC(C)C(=O)N2CCOCC2)cc1 (configuration not stated) > 76.9 µM
CS(=O)(=O)N(CCc1ccccc1)CC(=O)NCc1ccco1 > 76.9 µM
COC(=O)[C@H](C)NC(=O)Nc1ccccc1C(F)(F)F > 76.9 µM
N#CCC(=O)N1CCCCCC1 > 76.9 µM
COc1ccccc1NC(=O)Oc1ccc(NC(=O)c2ccco2)cc1 > 76.9 µM
CC12CCC(C(=O)NCc3ccc4c(c3)OCO4)(CC1=O)C2(C)C (configuration not stated) > 76.9 µM
CCOc1ccc2nc(N3CCCCCC3)sc2c1 > 76.9 µM
CN1C(=O)N(C)C2(c3ccccc3)N(C)C(=O)NC12c1ccccc1 (configuration not stated) > 76.9 µM
CC(=O)c1ccc(N2CCN(C(=O)c3ccco3)C(C)C2)c(F)c1 (configuration not stated) > 76.9 µM
CCn1c(SCC(=O)c2cccs2)nnc1-c1cccs1 > 76.9 µM
CC(=O)c1n[nH]nc1NC(=O)c1ccccc1 > 76.9 µM
Cc1n[nH]c(C)c1S(=O)(=O)NCCc1ccc(Cl)cc1 > 76.9 µM
COc1ccc(Br)cc1C1NC(=O)c2c(sc3c2CCN(C)C3)N1 (configuration not stated) > 76.9 µM
Cc1cc(-c2nnc3n2N=C(C(C)(C)C)CS3)n[nH]1 > 76.9 µM
CCOC(=O)N1CCN(S(=O)(=O)c2ccc3c(c2)SCC(=O)N3)CC1 > 76.9 µM
COc1ccc(NS(=O)(=O)Cc2ccccc2Cl)cn1 > 76.9 µM
Cc1nonc1NC(=O)OC1CCCCC1 > 76.9 µM
N#Cc1c(N)oc(-c2cccs2)c1-c1cccs1 > 76.9 µM
Cc1ccccc1CN1C(=O)C2(OCCCO2)c2ccccc21 > 76.9 µM
Cn1c(C(=O)NCCC2=CCCCC2)cc2c(=O)n3ccccc3nc21 > 76.9 µM
Clc1ccc(OCCn2ccnc2)c(Cl)c1 > 76.9 µM
COc1ccc(CNC(=O)c2cc3c(=O)n4ccccc4nc3n(Cc3ccco3)c2=N)cc1 > 76.9 µM
COC(=O)C1=C(C)NC(C)=C(C(=O)OC)C1c1ccccn1 > 76.9 µM
Cc1ccc2c(c1)N(Cc1ccncc1)C(=O)C(C)O2 (configuration not stated) > 76.9 µM
COCCn1c(N)c(NCc2ccccc2)c(=O)n(CC(=O)Nc2cc(C)ccc2C)c1=O > 76.9 µM
CN1C(=S)SC(N(O)C(=O)NC2CCCCC2)C1(C)C (configuration not stated) > 76.9 µM
CCOc1cc(N2CCOCC2)c(OCC)cc1NC(=O)COC(=O)CCc1c[nH]c2ccccc12 > 76.9 µM
CCN(Cc1ccccc1)C(=O)c1ccccc1C > 76.9 µM
O=C(Nc1ccc(F)cc1F)c1ccco1 > 76.9 µM
CC(C)(C)NC(=O)C1CC(=O)OC12CCCCC2 (configuration not stated) > 76.9 µM
COCCNC(=O)CSc1nc2cc(OC)c(OC)cc2c(=O)n1CCC1=CCCCC1 > 76.9 µM
O=C(c1ccc2c(=O)n(Cc3ccco3)c(=S)[nH]c2c1)N1CCN(c2ccccc2)CC1 > 76.9 µM
CS(=O)(=O)N1CCc2cc(S(=O)(=O)Nc3ccc4oc5c(c4c3)CCCC5)ccc21 > 76.9 µM
CCc1nc2cc(Cl)c(Cl)cc2[nH]1 > 76.9 µM
O=C(CSc1nc2c(c(=O)n1-c1ccc(F)cc1)SCC2)NCc1ccco1 > 76.9 µM
CC(C)c1ccc(-c2nc(N3CCCCC3)[nH]c(=O)c2C#N)cc1 > 76.9 µM
O=C(Nc1ccc(Cl)cc1)c1ccc2c(c1)OCO2 > 76.9 µM
CCOC(=O)c1ccc(NC(=O)Cn2nnc(-c3ccccc3)n2)cc1 > 76.9 µM
COc1ccccc1NC(=O)Cc1noc(CN(C)Cc2cccs2)n1 > 76.9 µM
[N-]=[N+]=CC(=O)CNC(=O)[C@@H](Cc1ccccc1)N1C(=O)c2ccccc2C1=O > 76.9 µM
CCOC(=O)N1CCC(NC(=O)CCc2c(C)nc3nc(C)nn3c2C)CC1 > 76.9 µM
Cc1ccc(C(=O)CCNc2ccccc2)o1 > 76.9 µM
O=C(O)COc1ccc(-c2nnn(CC(=O)O)n2)cc1 > 76.9 µM
COc1ccc(N(CC(=O)NC(C)(C)C)C(=O)c2ccco2)cc1 > 76.9 µM
CC(C)C(NC(=O)C12CC3CC(CC(C3)C1)C2)C(=O)O (configuration not stated) > 76.9 µM
O=S(=O)(NCCOCC(F)(F)C(F)F)c1ccc2oc3ccccc3c2c1 > 76.9 µM
NC(=O)c1oc2ccc(Cl)cc2c1NC(=O)CN1CCOCC1 > 76.9 µM
CCS(=O)(=O)N1CCCC(C(=O)NC2CCCC2)C1 (configuration not stated) > 76.9 µM
CC(=O)Nc1ccc(S(=O)(=O)Nc2ccc(N3CCOCC3)c(F)c2)cc1 > 76.9 µM
COc1cc(C2/C(=C(\O)c3cc(C)ccc3C)C(=O)C(=O)N2CCN(C)C)ccc1O (configuration not stated) > 76.9 µM
COc1ccc(CC(=O)N2CCCc3ccccc32)cc1OC > 76.9 µM
COc1ccc(-c2nnc3ccc(SC)nn23)cc1 > 76.9 µM
O=S(=O)(Nc1cccnc1)c1ccc(C2CCCCC2)cc1 > 76.9 µM
CCOC(=O)CN(C(=O)CSc1nnc(CNc2ccc(C)cc2C)n1CC)c1ccccc1 > 76.9 µM
Cc1ccc(S(=O)(=O)c2cc3c(=O)n4ccccc4nc3n(CC3CCCO3)c2=N)cc1C (configuration not stated) > 76.9 µM
COc1cc2c(cc1OC)CN(C(=O)c1cc3ccccc3oc1=O)CC2 > 76.9 µM
CC(C)C(OC(=O)C1CCCO1)C(=O)NC1CCCC1 (configuration not stated) > 76.9 µM
O=C(c1ccccc1)c1nc2ccccc2[nH]c1=O > 76.9 µM
O=C(NCc1cccs1)c1cnn2cccnc12 > 76.9 µM
O=C1CC(Nc2ccccc2)C(=O)N1c1ccc(N2CCOCC2)cc1 (configuration not stated) > 76.9 µM
COc1ccc(C)cc1NC(=O)c1nc2nc(C)cc(C)n2n1 > 76.9 µM
CCOc1cc(-c2c(C#N)c(=O)[nH]c3c2c(C)nn3-c2ccc(F)cc2)ccc1O
CCSc1nnc([C@@H]2CCCN2C(=O)OC(C)(C)C)o1 > 76.9 µM
COc1ccc(C)cc1NC(=O)CSc1nnc(-c2ccc(OC)c(OC)c2)n1N > 76.9 µM
CCOC(=O)c1cccc(NC(=O)CN(c2ccc(OC)cc2)S(=O)(=O)c2c(C)noc2C)c1 > 76.9 µM
